Reference: PMC12517274
Numbering of substitutions follows the chain as printed. These are yes or no findings as the source states them, for the method shown. Binding seen in cells or lysates may run through a third protein. Some entries that bind do so weakly or less than the wild type. For some of these results: Tags and fused reporters may be left off the sequences shown.

T1: WT RIPK1 reconstituted in RIPK1 KO MEFs (mouse) (UniProt Q60855)
T1 sequence: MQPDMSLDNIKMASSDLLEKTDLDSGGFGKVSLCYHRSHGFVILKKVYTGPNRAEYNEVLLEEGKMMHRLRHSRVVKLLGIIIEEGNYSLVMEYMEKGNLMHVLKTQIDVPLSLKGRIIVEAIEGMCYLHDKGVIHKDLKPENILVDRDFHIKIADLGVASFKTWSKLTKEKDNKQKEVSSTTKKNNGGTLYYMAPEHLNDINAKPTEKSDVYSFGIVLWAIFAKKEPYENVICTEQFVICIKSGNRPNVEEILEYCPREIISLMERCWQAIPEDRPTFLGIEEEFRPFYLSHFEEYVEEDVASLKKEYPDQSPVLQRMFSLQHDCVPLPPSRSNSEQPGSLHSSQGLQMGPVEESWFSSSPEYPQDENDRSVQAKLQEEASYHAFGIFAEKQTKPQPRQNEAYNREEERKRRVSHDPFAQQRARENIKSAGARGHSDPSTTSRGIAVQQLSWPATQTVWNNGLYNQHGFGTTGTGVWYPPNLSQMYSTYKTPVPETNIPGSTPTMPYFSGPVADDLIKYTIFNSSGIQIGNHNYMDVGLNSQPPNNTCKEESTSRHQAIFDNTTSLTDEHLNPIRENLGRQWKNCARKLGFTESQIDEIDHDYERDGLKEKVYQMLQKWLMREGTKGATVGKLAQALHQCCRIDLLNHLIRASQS

T2: receptor-interacting serine/threonine kinase 1 (RIPK1), endogenous in MEFs (mouse (endogenous in MEFs)) (UniProt Q60855)
T2 sequence: T1 sequence

T3: R606K mutant RIPK1 reconstituted in RIPK1 KO MEFs (mouse) (UniProt Q60855)
T3 sequence: T1 sequence with R606K

T4: full-length RIPK1 R606K expressed in HEK293T cells (Flag-tagged RIPK1-R606K and HA-tagged RIPK1-R606K) (mouse) (UniProt Q60855)
T4 sequence: T1 sequence with R606K

T5: full-length RIPK1 expressed in HEK293T cells (Flag-tagged RIPK1 and HA-tagged RIPK1) (mouse) (UniProt Q60855)
T5 sequence: T1 sequence

B1: TRADD, endogenous in MEFs (protein, UniProt Q3U0V2 1-310)
chain: MAAGQNGHEEWVGSAYLFLESAVDKVILSEAYTDPKKKVAIYKALQTALSESGDSSDVLQILKIHCSDPQLIVQLRFCGRVLCGRFLQAYREGALRTALQRCMAPALAQEALRLQLELRAGAEQLDSWLTDEERCLNYILAQKPDRLRDEELAELEDELCKLTCDCTGQGGAIQVASAGSKFPVSSPTEEKPLPAACQTFLFHGQLVVNRPLTLQDQQTFARSVGLKWRRVGRSLQRNCRALRDPALDSLAYEYERDGLYEQAFQLLRRFMQAEGRRATLQRLVEALEENELTSLAEDLLGQAEPDGGLA
B2: FADD, endogenous in MEFs (protein, UniProt Q61160 1-205)
chain: MDPFLVLLHSLSGSLSGNDLMELKFLCRERVSKRKLERVQSGLDLFTVLLEQNDLERGHTGLLRELLASLRRHDLLQRLDDFEAGTATAAPPGEADLQVAFDIVCDNVGRDWKRLARELKVSEAKMDGIEEKYPRSLSERVRESLKVWKNAEKKNASVAGLVKALRTCRLNLVADLVEEAQESVSKSENMSPVLRDSTVSSSETP
B3: RIPK1 death domain (Flag-tagged RIPK1-DD and HA-tagged RIPK1-DD) (domain or fragment, UniProt Q60855 568-654)
chain: TDEHLNPIRENLGRQWKNCARKLGFTESQIDEIDHDYERDGLKEKVYQMLQKWLMREGTKGATVGKLAQALHQCCRIDLLNHLIRAS
B4: receptor-interacting serine/threonine kinase 1 (RIPK1), endogenous in MEFs, Q60855 1-656 (protein)
chain: T1 sequence
B5: HA-tagged FADD (protein, UniProt Q61160 1-205)
chain: B2 chain
B6: HA-tagged TRADD (protein, UniProt Q3U0V2 1-310)
chain: B1 chain

Columns and labels:
[1] = target: T1, WT RIPK1 reconstituted in RIPK1 KO MEFs (mouse); assay: condition: only with Nec-1s (RIPK1 kinase inhibitor); co-IP; as a5 (TNFα/5z7-induced RDA in MEFs, RIPK1 immunoprecipitated), cells treated with the RIPK1 kinase inhibitor Nec-1s
[2] = target: T2, receptor-interacting serine/threonine kinase 1 (RIPK1), endogenous in MEFs (mouse (endogenous in MEFs)); assay: as above
[3] = target: T1, WT RIPK1 reconstituted in RIPK1 KO MEFs (mouse); assay: co-IP; MEFs (reconstituted with WT or R606K RIPK1, or siNC/siAdk) stimulated by Flag-TNFα (10 ng/ml) after 5z7 (500 nM) for 30 min; RIPK1 immunoprecipitated; FADD and TRADD by immunoblotting
[4] = target: T2, receptor-interacting serine/threonine kinase 1 (RIPK1), endogenous in MEFs (mouse (endogenous in MEFs)); assay: as above
[5] = target: T3, R606K mutant RIPK1 reconstituted in RIPK1 KO MEFs (mouse); assay: as above
[6] = target: RIPK1 death domain (Flag-tagged RIPK1-DD and HA-tagged RIPK1-DD) (mouse) (UniProt Q60855); assay: co-IP; HEK293T cells cotransfected with Flag-tagged and HA-tagged expression plasmids for 24 h; some cells treated with DZNep (10 μM), siADK or adenosine (1 mM); immunoprecipitation and immunoblotting (0.5% Nonidet P-40 buffer in Fig. 4 I)
[7] = target: RIPK3, endogenous in MEFs (mouse (endogenous in MEFs)), Q9QZL0; assay: co-IP; necrosome: MEFs with siNC or siAdk, CHX (2 μg/ml) and zVAD.fmk (10 μM) for 0.5 h, then TNFα 10 ng/ml; RIPK3 immunoprecipitated, RIPK1 by immunoblotting; settings: remark: other sources report otherwise
[8] = target: T4, full-length RIPK1 R606K expressed in HEK293T cells (Flag-tagged RIPK1-R606K and HA-tagged RIPK1-R606K) (mouse); assay: co-IP; HEK293T cells cotransfected with Flag-tagged and HA-tagged expression plasmids for 24 h; some cells treated with DZNep (10 μM), siADK or adenosine (1 mM); immunoprecipitation and immunoblotting (0.5% Nonidet P-40 buffer in Fig. 4 I)
[9] = target: T5, full-length RIPK1 expressed in HEK293T cells (Flag-tagged RIPK1 and HA-tagged RIPK1) (mouse); assay: as above

| Binder | binding [1] | binding [2] | binding [3] | binding [4] | binding [5] | binding [8] | binding [9] | other results |
| --- | --- | --- | --- | --- | --- | --- | --- | --- |
| B1 | no binding | no binding | binds | binds | binds |  |  |  |
| B2 | no binding | no binding | binds | binds | binds |  |  |  |
| B3 |  |  |  |  |  |  |  | binding [6]: binds |
| B4 |  |  |  |  |  |  |  | binding [7]: binds |
| B5 |  |  |  |  |  | binds | binds |  |
| B6 |  |  |  |  |  | binds | binds |  |
